According to PubChem BioAssay AID1963576 (National Center for Advancing Translational Sciences (NCATS), 2024):
Hit rate of the full screen: of about 46,000 compounds, about 60 (0.1%) were called active. Inconclusive results (about 3%) are left out. The call rests on the fitted dose curve; in most records, active means well fitted inhibition curve with a large enough effect; inconclusive means small, poorly fitted or top-dose-only effect; inactive means no such curve, though single readings can be large or run the other way. The list shows a part of the results.

Test: Primary qHTS assay for Inhibitors of ovarian cancer metastasis using an organotypic tumor microenvironment (TME) model. Further: nearly all actives have a fitted effect of over 65% in size.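 On activity change, negative = inhibition: plate controls were DMSO wells for no effect and tomatine positive control wells for full effect.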
Conditions: SKOV3ip1-GFP adhesion/invasion on 3D omental model, fluorescence; series mostly up to 45.8 µM; activity change, negative = inhibition: at the top concentration
Outline: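 qHTS, 4-pt dose (0.36-46 umol/L); SKOV3ip1-GFP, 1,200 cells/well, no FBS; primary omental fibroblast/mesothelial co-culture 48 h pre-grown; 2 h RT + 16 h 37 C; PBS wash, 4% PFA; GFP count 488/509 nm.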

Structure (SMILES)	activity change, negative = inhibition	outcome
COc1ccc(C(=O)N2c3ccc(C)cc3C(C)(c3ccccc3)CC2(C)C)cc1 (centres undefined)	inactive: 8.61%	
O=C(NCCCc1nc2ccccc2n1Cc1ccc(Cl)cc1Cl)c1ccco1		inactive
Cc1ccccc1NC(=O)c1ccc(Cl)c(S(=O)(=O)N2CCCCCC2)c1	inactive: -9.23%	
CCCCNS(=O)(=O)c1ccc2nc(-c3cccnc3)cc(C(=O)NCCOC)c2c1	inactive: 2.69%	
CC(C)c1ccc(OCC(O)CN2CCN(c3ccc(F)cc3)CC2)cc1 (centres undefined)		inactive
CCOCCCNC(=O)c1c(NC(=O)Cc2coc3ccc(C)cc23)sc2c1CCC2	inactive: -0.0919%	
O=S(=O)(c1cccc(F)c1)N1CCC(Oc2ccc(-n3cnnn3)cc2)CC1		inactive
CCc1ccc(S(=O)(=O)c2c(C(=O)c3ccccc3)cnc3ccc(CC)cc23)cc1	inactive: 2.65%	
COc1ccc(OC)c(NC(=O)Cc2c(C(=O)O)n(C)c3ccc(C)cc23)c1	inactive: -1.13%	
O=C1c2[nH]nc(-c3ccccc3O)c2C(c2ccc(F)cc2)N1CCO (centres undefined)	inactive: -0.225%	
COc1ccc(NC(=O)CSc2nccn2Cc2ccco2)c(OC)c1	inactive: 2.86%	
CCC1CCCCN1C(=O)Cn1c(=O)cc(C(F)(F)F)c2c(C)nn(C)c21 (centres undefined)	inactive: 2.96%	
CCc1cccc(C)c1Nc1c(-c2cccc(O)c2)nc2nc(C)cc(C)n12	inactive: -6.4%	
CCc1ccc(-n2c(=O)c3c(C)c(C(=O)N(C)C)sc3n(Cc3ccccc3C#N)c2=O)cc1		inactive
Cc1ccc(CN(Cc2ccco2)C(=O)c2ccc(Cl)cc2)o1		inactive
CCc1ccccc1NC(=O)CSc1ncc(S(=O)(=O)c2ccc(C(C)C)cc2)c(N)n1		inactive
COC(=O)c1cnn(-c2ccc(C(=O)Nc3cc(OC)c(OC)c(OC)c3)cc2)c1N	inactive: 2.23%	
CCOC(=O)c1cc(-c2ccc(OC)cc2)n(CCC(=O)Nc2nc3ccc(OCC)cc3s2)c1C	inactive: -9.05%	
COc1ccc(-c2nc(SCC(=O)N3CCCCC3C)n[nH]2)cc1 (centres undefined)		inactive
CC1=C(C(=O)Nc2ccc(Cl)cc2)C(c2ccc(C(F)(F)F)cc2)n2nnnc2N1 (centres undefined)		inactive
CCOC(=O)c1c(C)sc(-c2c(-c3ccc(OC)c(F)c3)[nH]c3[nH]c(=O)[nH]c(=O)c23)c1O		inactive
COc1ccc(NC(=O)c2c(NC(=O)Cc3ccccc3)sc3c2CCCC3)cc1	inactive: -1.12%	
O=C(CSc1ccc2nc(-c3ccccc3)cn2n1)Nc1cccc(F)c1	inactive: 7.88%	
Cc1ccc(NC(=O)C2CCCN2S(=O)(=O)c2ccc3c(c2)CCCC(=O)N3)cc1Cl (centres undefined)		inactive

Structure (SMILES)	activity change, negative = inhibition	outcome
Cc1cccc(NC(=O)CSc2nc3ccc(NC(=O)COc4ccccc4F)cc3s2)c1	inactive: -7.05%	
Cc1cc(F)ccc1NC(=O)Cn1c(=O)ccc2cc(S(=O)(=O)N3CCC(C)CC3)ccc21	inactive: 4.59%	
CCN(CC)CCCNC(=O)CN1N=C(c2ccccc2)CCC1=O		inactive
COc1ccc(Cn2nnc3c(=O)[nH]c(C4CCN(C(=O)c5ccc(C)cc5)CC4)nc32)cc1OC	inactive: -1.75%	
COc1ccc(NC(=O)Cn2c(=O)n(Cc3ccc(C(=O)NCc4ccccc4Cl)cc3)c(=O)c3ccccc32)cc1		inactive
COc1ccc(CNC(=O)c2ccc(CNS(=O)(=O)c3ccc(F)cc3)cc2)cc1	inactive: -20.3%	
COC(=O)c1sccc1S(=O)(=O)N(CC(=O)NCc1ccc(F)cc1)c1ccc(Cl)cc1	inactive: 13.8%	
Cc1ccc(NC(=O)Cn2nnc(C(=O)NCc3cccs3)c2N)cc1Cl		inactive
Cc1nn(C)c2c1c(C(F)(F)F)cc(=O)n2C(C)C(=O)NCc1ccccc1Cl (centres undefined)		inactive
Cc1nn(CC(=O)N2CCN(c3cccc(C(F)(F)F)c3)CC2)c(=O)c2cccn12		inactive
COc1ccccc1NC(=O)CSC1=Nc2ccccc2C2=NC(CC(=O)NCc3cccs3)C(=O)N12 (centres undefined)		inactive
COc1ccc(CCNC(=O)c2ccc3c(c2)N(Cc2ccccc2C)C(=O)c2ccccc2S3)cc1OC	inactive: 3.2%	
Cc1ccccc1NC(=O)CSc1nnc(-c2cccs2)o1	inactive: 0.93%	
CCOC(=O)O[C@]1(C(=O)OCCl)CC[C@@H]2[C@H]3CCC4=CC(=O)C=C[C@]4(C)[C@@H]3[C@@H](O)C[C@@]21C	inactive: -2.93%	
Cc1oc(-c2cccc(Cl)c2)nc1Cn1c(SCc2ccccc2F)nc2ccncc21		inactive
Cc1cc(C)cc(NC(=O)Cn2c(C(F)(F)F)nc3ccccc32)c1	inactive: -6.21%	
CCCCS(=O)(=O)c1nc(-c2ccc(Br)cc2)cc(-c2ccccc2)c1C#N	inactive: -26%	
COc1ccc(-n2ncc(C(=O)N3CCOCC3)c2C2CCN(C(=O)OC(C)(C)C)CC2)cc1		inactive
Cc1ccc(Cl)cc1N1CCN(C(=O)c2cc3c(-c4ccccc4F)nn(C)c3s2)CC1	inactive: -7.4%	
CCc1ccc2oc(-c3cc(NC(=O)c4cc([N+](=O)[O-])ccc4N4CCOCC4)ccc3Cl)nc2c1	inactive: 5.65%	
CCCN(CCC)C(=O)Cn1c(=O)n(-c2ccc(Cl)cc2)c(=O)c2c3c(sc21)CCCC3		inactive
COc1ccc(NC(=O)CSc2nc(-c3ccco3)cc(C(F)(F)F)n2)cc1Cl		inactive
Fc1ccc(-c2cn3cc(Cc4ccccc4)sc3n2)cc1		inactive
COc1ccc(CNC(=O)c2cnc(N3CCOCC3)c3ccccc23)cc1	inactive: 5.19%	

Structure (SMILES)	activity change, negative = inhibition	outcome
N#Cc1ccccc1NC(=O)CSc1nnc(N)s1		inactive
Cc1ccc(N2CCN(S(=O)(=O)c3ccc4[nH]c5c(c4c3)CCCCC5)CC2)c(C)c1	inactive: 12.4%	
CC1CCc2c(sc3nnn(CC(=O)Nc4ccc(Cl)cc4)c(=O)c23)C1 (centres undefined)	inactive: 2.95%	
CCN(C(=O)c1cn(CC)c(=O)c2cc(OC)c(OC)cc12)c1ccc(C)c(C)c1		inactive
COc1cccc(Nc2c(C(N)=O)cnc3c(C)cc(S(=O)(=O)c4cccc(C(=O)N(C)C)c4)cc23)c1	inactive: -8.73% [at 23.2 µM]	
O=C1COc2ccc(-c3cc(-c4ccccc4)c4c(n3)-c3cc(Cl)ccc3OC4)cc2N1	inactive: 2.91%	
Cc1cccc(NC(=O)CCc2c(C)nc3c(c(C)nn3C(C)(C)C)c2C)c1C	inactive: -7.05%	
Cn1c(=O)c2sccc2n2c(CCCC(=O)NCc3ccccc3)nnc12	inactive: -24.9%	
COc1ccc(-c2nc3c(c(SCC(=O)N4CCCCC4)n2)Cc2c(CO)cnc(C)c2O3)cc1	inactive: 4.2%	
CSc1cccc(NC(=O)Cn2ncn3c(cc4ccccc43)c2=O)c1	inactive: 17.6%	
COC(=O)c1cc2occc2n1CC(=O)Nc1ccc(C(C)C)cc1	inactive: 1.84%	
O=C(Nc1ccc(F)cc1)N1CCN(C(=O)c2nsc3ccccc23)CC1	inactive: 8.52%	
COc1cccc(-n2nnc(-c3nc(-c4ccccc4F)no3)c2C)c1		inactive
O=C(Nc1cccc(F)c1F)C1CCN(c2ncccn2)CC1		inactive
COc1ccc(OC)c(CNC(=O)CN2CC(C)Sc3ccccc32)c1 (centres undefined)		inactive
Fc1ccccc1N1CCN(c2ncc3c(n2)CCN(Cc2cc(Br)cs2)C3)CC1	inactive: -23%	
CCOc1ccccc1NC(=O)C(c1ccccc1)N1Cc2ccccc2C1=O (centres undefined)	inactive: -6.84%	
Cn1nnc2c(N3CCN(c4cccc(C(F)(F)F)c4)CC3)ncnc21	inactive: 5.25%	
Cc1cccc(N2CCN(C(c3ccccc3)c3nnc(-c4ccccc4Cl)o3)CC2)c1C (centres undefined)	inactive: -2.57%	
CCCN(C(=O)c1nn(-c2ccc(OC)cc2)c(=O)c2c1c1ccccc1n2C)c1ccc(CC)cc1	inactive: 0.637%	
Cc1ccc(Cc2c(C)nc3nc(SCC(=O)NC(C)c4ccccc4)nn3c2C)cc1 (centres undefined)	inactive: -25.9%	
COc1ccc(NC(=O)c2csc3c2CCCCC3)cc1		inactive
Cc1ccc(Cc2nc3ccccc3nc2SCC(=O)NCCC(C)C)cc1	inactive: -4.75%	
COc1cccc(-c2nc(SCc3cc(=O)c4ccc(C)c(C)c4[nH]3)n[nH]2)c1	inactive: 0.0223%	

Structure (SMILES)	activity change, negative = inhibition	outcome
CCOc1ccc(NC(=O)Cn2cc(C(=O)c3ccc(CC)cc3)c(=O)c3cc(C)ccc32)cc1	inactive: -25.5%	
CCOc1cccc(C(=O)Nc2ccc(S(=O)(=O)N(Cc3ccccc3)c3ccccc3)cc2)c1	inactive: -6.44%	
COc1ccc(C(=O)NCC(c2cccnc2)N2CCc3ccccc3C2)cc1OC (centres undefined)	inactive: 4.35%	
COC(=O)c1cc2occc2n1Cc1nc(-c2ccccc2F)oc1C	inactive: -12.6%	
Cn1c(=O)c2c(-c3ccccc3)n3c4ccccc4nc(-c4ccccc4)c3c2n(C)c1=O	inactive: 8.44%	
O=C(CSc1nc2c([nH]c3ccccc32)c(=O)n1-c1ccc(F)cc1)NCc1ccccc1	inactive: -5.38%	
CCOCCCn1c(SCC(=O)Nc2ccc(C(C)C)cc2)nc2c(sc3ccccc32)c1=O	inactive: 3.95%	
COc1ccc(S(=O)(=O)c2nnn(-c3cc(Cl)c(OC)cc3OC)c2C)cc1		inactive
Cc1ccc(CN2CCC(CNc3ncnc4onc(-c5ccc(F)cc5)c34)CC2)cc1	inactive: 1.11%	
O=C(Nc1cccc(-c2nc3cc(Cl)ccc3o2)c1)c1cc([N+](=O)[O-])ccc1N1CCOCC1	inactive: 1.77%	
CCn1c(=O)c2cc(C(=O)Nc3cc(F)ccc3F)sc2c2ccccc21	inactive: 4.61%	
COc1ccc(CN2C(=O)c3oc4ccccc4c(=O)c3C2c2ccc(O)cc2)cc1 (centres undefined)	inactive: 1.29%	
COc1ccc(C)cc1NC(=O)N(Cc1ccc(C)o1)C1CCN(C(C)=O)CC1	inactive: -10.4%	
COc1ccccc1NC(=O)Cn1c(=O)n(Cc2ccccc2)c(=O)c2sc3ccccc3c21	inactive: -10.2%	
Cc1ccc(-c2nnc(Nc3cccc(Cl)c3)c3ccccc23)cc1S(=O)(=O)N1CCOCC1	inactive: 0.132%	
COc1ccc(OC)c(NC(=O)CN(C)S(=O)(=O)c2ccc(C(=O)N3CCOCC3)s2)c1		inactive
O=C(Cn1cnc2c(oc3ccccc32)c1=O)Nc1ccccc1C(F)(F)F	inactive: -1.64%	
CCC(=O)Nc1cc(C)c(O)c(-c2nc3ncccc3o2)c1	inactive: 6.98%	
CC1CCN(C(=O)Cn2cc(SCC(=O)NCc3ccccc3Cl)c3ccccc32)CC1	inactive: 7.92%	
CCCc1nc2sc3c(N4CCC(C)CC4)ncnc3c2c2c1CCCC2	inactive: 0.735%	
CC(C)COc1cccc(C(=O)Nc2ccc(-c3nc4ncccc4o3)cc2)c1	inactive: -9.46%	
CCC(C(=O)Nc1cccc(Cl)c1C)n1nc(-c2ccc(C)cc2)ccc1=O (centres undefined)		inactive
